{
  "source": "paper PMC9917443",
  "about": "(eLife, 2023)",
  "biological_target": "GB1a/2 receptors (Homo sapiens, UniProt O75899+Q9UBS5)",
  "sequence (Q9UBS5 15-961 limits assumed)": "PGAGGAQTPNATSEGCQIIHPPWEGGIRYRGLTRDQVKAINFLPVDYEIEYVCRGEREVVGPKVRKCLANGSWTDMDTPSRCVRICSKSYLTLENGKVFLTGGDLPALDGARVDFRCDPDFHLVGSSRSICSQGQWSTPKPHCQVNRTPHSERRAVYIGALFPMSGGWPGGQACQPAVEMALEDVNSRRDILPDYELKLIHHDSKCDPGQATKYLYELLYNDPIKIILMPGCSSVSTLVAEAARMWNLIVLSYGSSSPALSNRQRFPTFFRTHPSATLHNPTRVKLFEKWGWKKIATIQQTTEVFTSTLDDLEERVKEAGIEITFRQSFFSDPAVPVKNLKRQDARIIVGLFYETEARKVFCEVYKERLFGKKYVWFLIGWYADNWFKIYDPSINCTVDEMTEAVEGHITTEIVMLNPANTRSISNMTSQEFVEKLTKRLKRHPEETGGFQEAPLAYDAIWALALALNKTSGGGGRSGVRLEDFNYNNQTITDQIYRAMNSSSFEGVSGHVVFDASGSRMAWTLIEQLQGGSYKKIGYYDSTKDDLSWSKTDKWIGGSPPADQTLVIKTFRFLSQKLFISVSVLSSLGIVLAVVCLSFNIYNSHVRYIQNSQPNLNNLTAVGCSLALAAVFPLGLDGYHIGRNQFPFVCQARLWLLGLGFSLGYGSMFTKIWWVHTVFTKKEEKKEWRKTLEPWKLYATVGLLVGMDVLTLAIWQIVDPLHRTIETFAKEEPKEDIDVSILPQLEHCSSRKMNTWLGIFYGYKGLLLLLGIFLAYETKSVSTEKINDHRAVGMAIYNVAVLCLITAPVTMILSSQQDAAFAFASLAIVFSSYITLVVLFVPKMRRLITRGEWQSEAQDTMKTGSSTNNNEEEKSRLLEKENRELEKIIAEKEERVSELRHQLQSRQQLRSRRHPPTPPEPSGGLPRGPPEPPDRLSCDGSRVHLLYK",
  "sequence (O75899 42-941 partner)": "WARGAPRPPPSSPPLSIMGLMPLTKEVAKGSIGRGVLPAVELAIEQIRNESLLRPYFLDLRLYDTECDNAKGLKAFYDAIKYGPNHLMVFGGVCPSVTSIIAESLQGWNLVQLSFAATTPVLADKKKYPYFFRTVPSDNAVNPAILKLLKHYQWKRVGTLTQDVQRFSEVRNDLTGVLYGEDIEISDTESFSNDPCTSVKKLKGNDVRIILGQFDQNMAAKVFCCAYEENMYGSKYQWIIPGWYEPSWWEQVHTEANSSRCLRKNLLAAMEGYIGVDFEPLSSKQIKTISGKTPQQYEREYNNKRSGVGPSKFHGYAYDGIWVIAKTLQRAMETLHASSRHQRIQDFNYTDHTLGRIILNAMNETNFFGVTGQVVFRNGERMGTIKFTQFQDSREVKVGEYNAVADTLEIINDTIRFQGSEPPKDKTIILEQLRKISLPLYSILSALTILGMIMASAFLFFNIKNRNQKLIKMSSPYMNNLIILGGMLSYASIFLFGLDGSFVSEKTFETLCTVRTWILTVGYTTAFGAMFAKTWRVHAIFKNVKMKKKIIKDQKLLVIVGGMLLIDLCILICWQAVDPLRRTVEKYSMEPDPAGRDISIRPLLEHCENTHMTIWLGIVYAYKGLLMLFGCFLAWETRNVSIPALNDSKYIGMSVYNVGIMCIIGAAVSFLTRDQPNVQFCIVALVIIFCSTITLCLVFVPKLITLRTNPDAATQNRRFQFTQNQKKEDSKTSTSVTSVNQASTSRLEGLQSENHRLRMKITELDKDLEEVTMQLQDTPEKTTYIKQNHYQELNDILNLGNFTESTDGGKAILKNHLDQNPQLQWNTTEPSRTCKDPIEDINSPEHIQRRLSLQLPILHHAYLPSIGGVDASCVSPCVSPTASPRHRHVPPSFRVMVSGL",
  "assay": "SRE-luciferase accumulation assay (Gαqi/PLC) in HEK293T-Gαqi cells",
  "data": [
    {"substance": "Ac-DDSDVWWGGADTDYADG-NH2 [APP17]", "values": [
      {"measurement": "Top of GABA dose-response curve in presence of peptide", "setting": "GB1a/2 + APP, 10μM peptide, different curve for each data set", "value": 0.9813},
      {"measurement": "Span (shared fit)", "setting": "GB1a/2, GABA curve with 10μM peptide, one curve for all data sets", "value": 0.6924},
      {"measurement": "HillSlope of GABA curve (shared fit)", "setting": "GB1a/2, with 1μM peptide, one curve for all data sets", "value": 1.133}
    ]}
  ]
}
